Experimental data reported in the supplement of paper PMC3334620.
Over roughly 33,000 sequences, “E-score (-0.5 to 0.5)” has its median near -0.04; the highest 2% begin near 0.36. The list shows a part of the results.

target: T1, Hmlalpha2 (UniProt P0CY09); assay: PBM E-score (8-mer binding enrichment) (E-score (-0.5 to 0.5)); higher = stronger / more preferred TF binding; most listed sequences are background and not binding sites; settings: protein concentration: 200 nM; construct: GST-full length
T1 sequence: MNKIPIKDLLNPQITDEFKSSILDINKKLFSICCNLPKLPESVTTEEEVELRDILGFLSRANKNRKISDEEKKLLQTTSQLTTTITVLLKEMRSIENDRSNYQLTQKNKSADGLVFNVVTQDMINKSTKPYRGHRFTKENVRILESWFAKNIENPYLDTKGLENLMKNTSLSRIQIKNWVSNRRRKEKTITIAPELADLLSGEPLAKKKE
Procedure: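 Universal 'all 10-mer' protein binding microarrays (Agilent AMADID 015681) probed with GST-tagged S. cerevisiae TFs (full-length or DBD) made by in vitro transcription/translation (PURExpress), about 100-200 nM. Bound TF was detected with fluorescent anti-GST. Each ungapped 8-mer (which stands for itself and its reverse complement) is scored by the PBM enrichment score (E-score), a modified Wilcoxon-Mann-Whitney statistic from -0.5 to +0.5, computed with the Universal PBM Analysis Suite. Scale: above 0.35 generally sequence-specific binding.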

Sequence | PBM E-score
GCCTATCC | -0.262
CCCTAGAG | -0.232
ACGTTCAA | 0.206
GGATAACA | 0.28
AGCATGTC | 0.267
ATATTAGG | 0.0302
AGGATGGA | -0.311
AGTACCCC | -0.145
ATCGACAA | 0.0291
ATTGCAAT | -0.0745
GCCACTCA | -0.231
GACTCACC | -0.263
TATAGGAA | 0.104
CTTCGAAC | -0.0996
GGACTGCA | -0.141
GTATCAGA | -0.00972
CAGTTGTC | -0.0222
ATCGGCGG | -0.29
CTTGGGTA | 0.0421
GACTAGAA | -0.0547
CGGACCCC | -0.179
ACATCAGC | 0.0796
ACGTGCCT | 0.0976
ATTTGGGA | -0.168
AAACTAAT | 0.175

Sequence | PBM E-score
GTTACAAC | 0.258
ATCTTCGG | 0.177
ATCCCATC | -0.181
AGCCTGCG | -0.16
ATGTCAAT | 0.4
GAGTGGTA | -0.0287
GTCCCCAC | -0.345
AATCGAAC | 0.0857
ATGGAAAA | 0.126
ACCTCCAA | -0.0293
ACGGGTCA | -0.221
CCTGATCG | -0.296
GAGCTAAA | -0.115
TCCTGCCA | -0.249
ATTTGTGA | 0.00713
AAATTGAT | 0.0196
GGACAAAC | 0.0772
AACATCCA | 0.187
ATCAATGC | -0.0943
ATAGCCAG | -0.0612
GAAAAGGA | -0.129
GACCAAGC | -0.0531
AATAACAC | 0.396
CCACCAAG | -0.31
ACATCAAC | 0.255

Sequence | PBM E-score
AAACCCAG | 0.025
CCAAAGTA | -0.0127
AGGCTGAG | -0.172
ACATCAAT | 0.273
CAAACCAC | -0.0658
GAAGTTAA | 0.227
CGACAAGC | 0.1
CAACATCC | 0.0197
CGCTGTGC | -0.0825
CCGGGAGC | -0.408
AGGGACCT | -0.163
ATGATCTG | 0.0563
AAATACAT | 0.441
ACAACTGC | 0.0498
AGGACAAT | -0.107
GATAGCAA | 0.0619
ATGCATTA | 0.2
ACTGAGCC | -0.127
CCGTTATA | 0.174
ACACAGAG | 0.302
GAGTCAGA | -0.16
ACTAACAG | 0.0571
AACTCCGA | -0.114
AGTGTTAA | 0.374
AAAAACGG | -0.0735

Sequence | PBM E-score
CCAATTAA | 0.0839
CTGTAGAA | 0.161
AGAGGAAA | -0.0215
CAATAAAA | 0.0694
CCGGCTGC | 0.0149
AATCTCTG | -0.082
CTGATGGA | -0.268
AAAAGGCC | -0.176
AGAGAGAA | -0.107
AGTCTGAA | -0.114
ACGCCTTG | -0.0206
AAAGCTTT | 0.0499
ATAGTCTC | 0.069
ACAGCCCG | -0.177
AAAACAGT | 0.00087
AGTACGGA | -0.11
ACTCAGAC | 0.0463
GCAGATTA | -0.00685
CAGTGCCG | -0.109
AATTATTC | 0.14
CGGGGTAG | -0.318
ACCACCAC | -0.0208
AGCTAAGG | -0.0419
AGAAATTC | -0.123
AAATCGCA | -0.186

Sequence | PBM E-score
CGCTGCCC | -0.166
CCTTGTGA | 0.0902
CGGTTTCA | 0.0015
CAAGGTGG | 0.0166
CACAACGA | 0.166
GAGGCCTA | -0.23
AGGGCGCA | -0.164
CTGAGCGA | -0.0535
ATGGAGGA | 0.0206
CAGGGTCA | -0.169
CACGTATC | 0.101
ACAATCCG | 0.0885
GGTAAAAC | 0.215
CAAACCTG | 0.0013
GGAGAACA | 0.0647
CTAGCAAG | -0.133
CAGAGAGA | -0.126
GAAGGAGA | 0.0569
ATAACTGG | -0.197
AAATCCAA | 0.0423
ACGGTTCA | -0.211
GAGTTACC | 0.0792
ACGGGCTC | -0.274
GAACCGTC | -0.191
AGAGATCT | -0.139

Sequence | PBM E-score
AGGCACAA | -0.038
GCACCAAC | -0.0323
GCGCGACA | 0.0127
CAGAGCTC | -0.142
CCCCACTA | -0.194
CAGCATAC | -0.0768
GGGAATGA | -0.21
GAGGTGCC | -0.244
ATCTATTG | -0.0525
TACGACTA | 0.0552
GCCACTTA | -0.0823
AGACGCGG | 0.0088
TAGATGAA | 0.186
CCCGCAAC | 0.0639
CGGTGGCC | -0.24
ACGCTAGT | 0.0303
GAGGCTAA | -0.098
CGGCAGGA | -0.345
AAAAACTG | -0.104
CAACCTCA | -0.0212
CGGAAGAA | -0.0588
GCCCTTGA | -0.127
CTACTGCC | -0.334
TACGAACA | 0.248
AAGGTGAG | -0.203

Sequence | PBM E-score
AAGCCTCT | -0.29
AAGCTGCA | 0.0105
CAAATTGA | -0.017
CACGGTTC | 0.156
CCGAATTA | 0.0154
AAGCACCC | -0.201
GCGCAGTA | -0.147
TTGTTAAA | 0.359
CATAATCC | -0.0874
AGAACAGG | 0.0558
ATATCTTC | -0.0479
GAATGGGA | -0.228
CTTGCCCC | -0.317
ACTACGTC | 0.0817
GATCGTCC | -0.228
ACATCTGC | 0.0406
GGTGTCGA | -0.0862
CTGAGGAC | -0.24
AAATATGA | 0.0694
ATCGAACG | -0.0528
ACCTACCT | -0.0969
ATGACGCC | -0.105
